According to PubChem BioAssay AID1460 (National Center for Advancing Translational Sciences (NCATS), 2008):
Screen size: about 270,000 compounds; about 5,800 (2.1%) were called active. The inconclusive results got no clear call from the source; some entries with a clear call stand among them for comparison. The call rests on the fitted dose curve; in most records, active means well fitted inhibition curve with a large enough effect; inconclusive means small, poorly fitted or top-dose-only effect; inactive means flat fitted curve, though single readings scatter. Where the call is inconclusive, the potency comes from a doubtful curve fit.

Target: Microtubule-associated protein tau (Homo sapiens) (UniProt P10636)
Sequence of UniProt P10636 (P10636 whole entry, looked up): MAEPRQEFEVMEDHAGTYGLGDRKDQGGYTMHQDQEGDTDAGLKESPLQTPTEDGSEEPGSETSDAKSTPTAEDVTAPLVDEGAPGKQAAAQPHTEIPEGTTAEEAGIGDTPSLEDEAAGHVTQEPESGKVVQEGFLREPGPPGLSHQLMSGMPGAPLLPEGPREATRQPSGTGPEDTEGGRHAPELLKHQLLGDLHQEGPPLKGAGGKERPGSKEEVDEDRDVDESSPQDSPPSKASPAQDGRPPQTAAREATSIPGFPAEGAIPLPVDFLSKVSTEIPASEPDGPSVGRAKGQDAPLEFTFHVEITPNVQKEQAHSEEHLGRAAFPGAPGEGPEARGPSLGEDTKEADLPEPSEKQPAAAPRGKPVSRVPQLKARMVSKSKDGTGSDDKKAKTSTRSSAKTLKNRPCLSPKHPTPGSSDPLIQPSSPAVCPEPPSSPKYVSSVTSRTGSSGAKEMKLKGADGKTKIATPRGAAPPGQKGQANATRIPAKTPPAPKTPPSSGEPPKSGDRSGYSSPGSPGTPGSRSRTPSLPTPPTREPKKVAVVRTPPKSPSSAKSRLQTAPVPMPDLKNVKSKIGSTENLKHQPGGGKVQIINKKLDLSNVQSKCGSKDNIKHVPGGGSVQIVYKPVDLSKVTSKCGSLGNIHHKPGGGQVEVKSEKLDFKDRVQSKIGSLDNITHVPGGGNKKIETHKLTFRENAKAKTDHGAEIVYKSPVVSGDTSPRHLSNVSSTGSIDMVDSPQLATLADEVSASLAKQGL
Experiment: qHTS for Inhibitors of Tau Fibril Formation, Thioflavin T Binding; further: nearly all actives have a fitted effect of over 55% in size
Conditions: recombinant tau K18 P301L, heparin-induced fibrillization, ThT fluorescence; series mostly up to 57.4 µM; activity, negative = inhibition: at the top concentration
Procedure, shortened: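 Using a mix of unlabeled (15 uM) and Alexa 594-labeled (0.24 uM) tau K18 P301L, heparin-triggered fibrillization over 6 hr at 37 C was scored by ThT fluorescence.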
On the % scale 0 is the no-effect control and ±100 the full control effect; potency means the concentration at half of the fitted maximal effect; tags describe the fitted curve by direction and shape.

Structure (SMILES)	Potency	activity, negative = inhibition
O=C(O)c1ccc(N/N=C/c2ccc3c(c2)OCO3)cc1	inconclusive: 14.1 µM [inhibitor, partial curve]	
COc1ccc(N=C2SCC(=O)N2Cc2ccccc2)cc1	inconclusive: 14.1 µM [inhibitor, partial curve]	
C=CCn1cc(C(=O)NCC2CCCO2)c(=O)c2cc(S(=O)(=O)N3CCCCCC3)ccc21 (centres undefined)		inactive: -13.6%
O=S(=O)(c1ccc(Cl)cc1)c1nc(-c2cccs2)oc1N1CCCCC1		inactive: -11.3%
c1ccc(N2CCN(c3ncnc4scc(-c5cccs5)c34)CC2)cc1	inconclusive: 31.6 µM [inhibitor, single point]	
COC(=O)c1ccc(C(=O)OC)c(NC(=S)N2CCCC(C)C2)c1 (centres undefined)		inactive: -13%
Cc1cccc(C(=O)Oc2ccccc2/C=N/Nc2ccc([N+](=O)[O-])cc2)c1	inconclusive: 7.94 µM [inhibitor, partial curve]	
O=C(Nc1ccc(N2CCCC2)c(Cl)c1)c1ccc(Br)o1	inconclusive: 12.6 µM [inhibitor, partial curve]	
NC(=O)N/N=C/c1c(Sc2nnnn2-c2ccccc2)nc2ccccn2c1=O	inconclusive: 14.1 µM [inhibitor, partial curve, poor fit]	
CC(=O)Nc1cc(C(=O)O)ccc1S(=O)(=O)c1ccc(Cl)cc1	inconclusive: 35.5 µM [inhibitor, partial curve]	
O=C(CN1CCN(c2ccc(O)cc2)CC1)Nc1cc(S(=O)(=O)N2CCOCC2)ccc1Cl	inconclusive: 22.4 µM [inhibitor, single point]	
CCc1nnc(NC(=O)c2sc3nc4cc(C)ccc4cc3c2N)s1	active: 2 µM	
CC(C)OCCCNc1ncc2c(n1)CC(c1ccc(N(C)C)cc1)CC2=O (centres undefined)		inactive: -4.95%
CC(=O)Nc1ccc(NC(=O)c2ccc3c(c2)N(Cc2cccc(Cl)c2)C(=O)c2ccccc2S3=O)cc1 (centres undefined)		inactive: -10.4%
COCc1nc2ccccc2n1Cc1ccc(C(C)(C)C)cc1		inactive: -9.42%
COc1ccc2nc(SCC(=O)Nc3cc(OC)c(OC)cc3C(=O)O)c(C)cc2c1	inconclusive: 17.8 µM [inhibitor, partial curve, poor fit]	
CN(C)c1ccc(/C=N/NC(=O)COc2ccccc2)cc1	inconclusive: 3.98 µM [inhibitor, full curve]	
CCOC(=O)c1c(-c2ccc(C)cc2)csc1/N=C(\C)C1=C(O)c2ccccc2C1=O	inconclusive: 14.1 µM [inhibitor, partial curve]	
COc1ccc(NC(=O)Nc2cc(-c3cn4cccnc4n3)ccc2C)cc1	inconclusive: 8.91 µM [inhibitor, single point]	
Cc1cc(N/N=C2/CCCc3ccccc32)nc2ccccc12	inconclusive: 10 µM [inhibitor, partial curve]	
Cc1ccc(NC(=O)CSc2ccc(-c3ccco3)nn2)cc1	inconclusive: 12.6 µM [inhibitor, partial curve]	
CC(=O)N1CCC(N(Cc2ccc(C)o2)C(=O)Nc2cccc(C(F)(F)F)c2)CC1		inactive: -11.2%
CCOc1cc(C(=O)Nc2cc3c(cc2N2CCCC2)n(C)c(=O)c(=O)n3C)cc(OCC)c1OCC	inconclusive: 12.6 µM [inhibitor, partial curve]	

Structure (SMILES)	Potency	activity, negative = inhibition
Cc1cc(C)c2nc(C)cc(Nc3cccc(C(=O)O)c3)c2c1		inactive: 0.305%
Cc1cccc(C)c1NC(=O)C(NC=O)c1ccc(Cl)cc1 (centres undefined)		inactive: -1.09%
O=C(CSc1ncnc2nc[nH]c12)c1ccc([N+](=O)[O-])cc1	inconclusive: 3.16 µM [inhibitor, partial curve]	
CCc1ccc(S(=O)(=O)Nc2cccc(-c3ccc(N4CCCCC4)nn3)c2)s1		inactive: 3.88%
CCC(=O)N[C@@H]1Cc2ccccc2[C@@H](c2ccccc2)C1		inactive: -8.44%
O=C(Nc1sc2c(c1C(=O)NCc1ccco1)CCCC2)c1cc(=O)c2cc(Cl)ccc2o1	inconclusive: 3.55 µM [inhibitor, full curve]	
CC(=O)c1ccc(N(C(=O)Cn2nnc3ccccc32)C(C(=O)NCc2ccccc2)c2ccccn2)cc1 (centres undefined)	inconclusive: 35.5 µM [inhibitor, partial curve]	
Cc1cc(C)c2nc3s/c(=C/c4ccccc4)c(=O)n3c2c1	active: 28.2 µM	
CCC(=O)N1CCc2cc(Br)cc(S(=O)(=O)NCCc3cccc(C)c3)c21		inactive: -10.6%
COc1ccc2c(/C=N/NS(=O)(=O)c3ccc(C)cc3)c[nH]c2c1	inconclusive: 15.8 µM [inhibitor, partial curve]	
Cc1cccc(C(=O)Nc2cc3c(cc2C)n(C)c(=O)n3C)c1	inconclusive: 12.6 µM [inhibitor, partial curve]	
COc1cccc(-c2nc(CS(=O)(=O)CC(=O)NC3CCCc4ccccc43)c(C)o2)c1 (centres undefined)	inconclusive: 17.8 µM [inhibitor, partial curve]	
CCn1cc(C(=O)NCc2ccco2)c(=O)c2cc(S(=O)(=O)N3CC(C)CC(C)C3)ccc21 (centres undefined)	inconclusive: 17.8 µM [inhibitor, partial curve]	
COC(=O)c1c(NC(=O)c2ccc(OC)cc2OC)sc2c1CCCCC2	inconclusive: 22.4 µM [inhibitor, partial curve]	
COc1ccc(CC(C)NS(=O)(=O)c2ccc3c(c2)CCN3S(C)(=O)=O)cc1OC (centres undefined)		inactive: 1.44%
CC(Sc1nc(-c2ccccc2)cc(C(F)(F)F)n1)C(=O)Nc1sc2c(c1C(N)=O)CCC2 (centres undefined)		inactive: 5.08%
COC(=O)Cn1cnc2c(cnn2-c2ccccc2)c1=O		inactive: -8.02%
c1ccc(CCNc2ncnc3c2cnn3-c2ccccc2)cc1		inactive: -1.71%
COc1ccc(NC(=O)c2oc3ccccc3c2NC(=O)c2cc(=O)c3cc(Cl)ccc3o2)cc1	inconclusive: 6.31 µM [inhibitor, partial curve]	
CN1/C(=C/C=C(C#N)C#N)C=Cc2ccccc21	inconclusive: 1.12 µM [inhibitor, full curve]	
c1cncc(N=c2scc(-c3cccc4ccccc34)n2CCCn2ccnc2)c1	inconclusive: 11.2 µM [inhibitor, partial curve]	
Cc1cc(C)nc(N2CCCC(C(=O)Nc3ccc4nc(C)c(C)nc4c3)C2)n1 (centres undefined)		inactive: -17.1%
O=c1c2ccccc2nc(N/N=C/c2c(O)ccc3ccccc23)n1O	active: 11.2 µM	

Structure (SMILES)	Potency	activity, negative = inhibition
CC1CC2(CC(C)(C(=O)CSc3nc4ccccc4s3)OC2=O)C(=O)O1 (centres undefined)	inconclusive: 39.8 µM [inhibitor, single point]	
CCN1CCN(c2csc3ccc(Br)cc3c2=O)CC1	inconclusive: 20 µM [inhibitor, partial curve, poor fit]	
COC(=O)c1ccc2nc(NC(=O)COC(=O)CSc3nc(C)cc(C)n3)sc2c1	inconclusive: 22.4 µM [inhibitor, single point]	
COCCNc1nnc(SC(C)C(=O)Nc2ccc(-c3nc4ccc(C)cc4s3)cc2)s1 (centres undefined)	inconclusive: 2.51 µM [inhibitor, full curve, poor fit]	
O=C(/C=C/c1ccccc1)c1cc(Br)ccc(=O)c1O	active: 14.1 µM	
Cc1nn(Cc2ccccc2)c2c1C(c1ccccc1)C(C#N)=C(N)O2 (centres undefined)	inconclusive: 28.2 µM [inhibitor, partial curve, poor fit]	
COc1ccc(O)c(C(=O)c2cc(SCC(=O)O)c3nc4sc5c(c4c(=O)n3c2)CCCC5)c1	active: 17.8 µM	
CC(C)NC(=O)c1onc(CSc2ccc(Cl)cc2)c1C(=O)NC(C)C		inactive: 4.46%
Cc1cccc(Cn2c(-c3ccccc3)nc3ccccc32)c1	inconclusive: 31.6 µM [inhibitor, single point]	
O=C(CC1N=C2c3ccccc3N=C(SCc3ccc(F)cc3)N2C1=O)NCCc1ccccc1 (centres undefined)	inconclusive: 39.8 µM [inhibitor, single point]	
COc1cc(OC)cc(-c2nc3nc(C)c(CCC(=O)Nc4cc(C)cc(C)c4)c(C)n3n2)c1	inconclusive: 15.8 µM [inhibitor, partial curve]	
COc1ccc(-c2nc(CSCC(=O)N3CCc4ccccc43)c(C)o2)cc1OC	inconclusive: 20 µM [inhibitor, single point]	
CC(C)Cn1cc(NC(=O)N2CCN(c3ccc(F)cc3)CC2)c2ccccc2c1=O	inconclusive: 35.5 µM [inhibitor, single point]	
COc1cc(C2=N/C(=C\c3ccccc3)C(=O)O2)cc(OC)c1OC	inconclusive: 31.6 µM [inhibitor, partial curve]	
Oc1ccc(/C=N/N=C(c2ccccc2)c2ccccc2)c(O)c1O	active: 8.91 µM	
Cc1ccc(-n2nc3c(=O)n(C(C)C(=O)NCc4ccc(OC(C)C)cc4)nc(C)c3c2C)cc1 (centres undefined)	inconclusive: 39.8 µM [inhibitor, single point]	
NC(=O)CSc1ncnc2c1nnn2Cc1ccc(F)cc1	inconclusive: 14.1 µM [inhibitor, partial curve]	
COc1ccc(-n2c(=S)[nH]c3sc4c(c3c2=O)CCc2ccccc2-4)cc1	inconclusive: 39.8 µM [inhibitor, single point]	
CC1=CC(C)(C)NC(=S)N1c1cccc2cc(S(=O)(=O)O)ccc12	active: 31.6 µM	
CC(=O)[C@@]1(O)C(C)CC2C3C=C(C)C4=Cc5c(cnn5-c5ccccc5)C[C@]4(C)C3C(O)C[C@@]21C (some centres undefined)		inactive: -16.6%
CCOc1ccc2nc(NC(=O)c3nc(SCc4ccccc4F)ncc3Cl)sc2c1		inactive: 13.5%
COc1ccc(-c2nc3cc(NC(=S)NC(=O)Cc4ccccc4)ccc3o2)cc1		inactive: -2.06%
COc1cccc(CNCCc2c[nH]c3ccccc23)c1OCc1ccc(F)cc1	inconclusive: 39.8 µM [inhibitor, partial curve, poor fit]	
